# The list shows a part of the results.
# Test system: PfHDP1 homeodomain (GST-tagged)
# Test: gcPBM binding intensity (ln(normalized median fluorescence intensity)); higher = stronger DNA binding
# How it was run: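 GST-tagged P. falciparum DNA-binding domains, expressed in E. coli (about 25 μg on average), were applied for 1 h to an Agilent 4 × 180k array of primer-extended double-stranded 36-bp intergenic genomic probes plus negative controls. The binding buffer was 1× PBS with 1% milk, 0.2 mg/ml BSA, 0.5% salmon testes DNA and 0.03% Triton X-100. Bound protein was detected with Alexa488 anti-GST antibody and scanned at 488 nm. Binding intensity is the highest Masliner-normalised natural-log median intensity across replicate spots of either probe orientation.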
row,Sequence,gcPBM binding intensity (ln)
1,ATAAAATATAGATGCACACACATATAGATTTCATAC [CACACA_site7636],8.42
2,ATCTGTCGACAGGACAGTACACAGTAGCCAGTAACT [XGTACX_site2001],6.09
3,ATATATATATATAGTGCACACATATAAAATATATAT [CACACA_site8884],10.3
4,TTATATGCTCAATGTTGTACATGTAGATATATATAT [XGTACX_site8211],9.77
5,TATTTATCATCATATTGTACATTATATATATAAAAT [XGTACX_site6675],6.7
6,AATAAAAAAATGTCACGTACTTATTTTATTAAACCT [XGTACX_site3031],6.48
7,GTATGGCGTATCATATGTACTAAAAAAAAATAAAAA [XGTACX_site5101],6.49
8,AAGTATGTCGACTGTTGTACTTTTATCATTTATTAT [XGTACX_site1129],6.6
9,ATATACTATGATAATACATGCGATAATACATTTTTA [TGCATGCA_site387],6.25
10,GCTTTAATCTGAAAGTGTACAGATAATATATTTATA [XGTACX_site2462],6.32
11,TGCATTATTTACAAGGTGCGTTACAAATGTGTAACA [GTGCAC_site9442],7.14
12,ATATATTATATATATATATATATATATTATTATTGT [TGCATGCA_negctrl_site286],7.58
13,TATGAATATTTGTATACATGCATATAGAAATCATAT [TGCATGCA_site533],6.43
14,TATTTGTAATATTATACACACATTATATATTACAAA [CACACA_site5804],6.97
15,TATTTTGTATATAAATGTACAAGTATATATTTTTTC [XGTACX_site7855],6.23
16,CGTAGCCACACTAACACACACAAATATACACAATCA [CACACA_site7379],6.71
17,ATTTAAATAACGTATGTATATACATATATATATATA [TGCATGCA_negctrl_site207],9.21
18,GATAAATGTATATATGCATGCACATATATTTATACA [TGCATGCA_site748],8.96
19,ATATATAGAATGTGTACACACATATGTATTTATATA [CACACA_site810],6.7

row,Sequence,gcPBM binding intensity (ln)
1,ATTTTTTATGGACAAAAGACCTCTGATGTAAATATA [CACACA_negctrl_site1081],6.22
2,AATTAGATTATGCACACACACTTAAAAATAATAAAT [CACACA_site7015],10.4
3,TTTTTTTTTTTCTTAGTGCGCGTGAAAAATATAAAA,6.53
4,TTACTCAAACAAACAAAAAAAAAAAAAAAAAAAAAA [TGCATGCA_negctrl_site457],5.82
5,TATATATATATTTTTGCATGTAATTTTTATGAGGAC [TGCATGCA_site884],8.37
6,TACTATAACGCACATACACACAAAAAAAAAAAAAAA [CACACA_site8073],7.97
7,TTATACATGAAATATTGTACACATATATATATATAT [XGTACX_site4378],9.41
8,ATATGGTGATATAGGTGTACATTTTGATGCTTATTT [XGTACX_site4283],6.53
9,AAGGGAAAATTAAGGTTGCACTAAAAATATATCTTT [GTGCAC_site9608],8.45
10,ATGAACATACAATATACACACATATATATTTATATT [CACACA_site4609],6.96
11,ATTCAAATTGTAGAAACACACAAAAACTTAACATAT [CACACA_site2617],6.86
12,TAGTTAACAAATAATGCACACAAATGGATAAAATTA [CACACA_site9240],10.6
13,CATATGATATGTTATACACACACGTATATATGAATT [CACACA_site3446],6.72
14,AAAAATAAAAAAATGACACACATATATATATATATA [CACACA_site2307],9.4
15,TATCTCTTATTTTATTGTACTTAACTATGCTATAAT [XGTACX_site4904],6.86
16,TAAGTATAATATTGATGTACATATAATAACTTGTAT [XGTACX_site417],6.2
17,ATTTATATATAATATACACACATATAATCCACATAT [CACACA_site699],7.14
18,AAGAGAAATTATAACATGTGAAATGTATTATATATA [TGCATGCA_negctrl_site254],6.26
19,TTTTTCATCATATGTTGTACAATGTGTAGATATATT [XGTACX_site3195],7.02

row,Sequence,gcPBM binding intensity (ln)
1,GAATAAATATTAAATGTGCACTTGAATAGATGTAAA,9.88
2,CACGCGCCCGGACACACACACACACCCATATATATA [CACACA_site5251],6.84
3,CTTTGTGTTAAAAGTAGTACACCAAAAATATGACTT [XGTACX_site622],6.4
4,AGATACGATTATATGCGTTCAATATACCAAATAATT [TGCATGCA_negctrl_site501],6.08
5,TAATATTATAGATAAACACACATACACATGTAAATA [CACACA_site7049],6.84
6,AAATGAAATTTGTATACACACAAATATATATATATA [CACACA_site836],9.07
7,TATAAGCAAAAACACACACACATATATATATATATA [CACACA_site3804],9.41
8,AATAATAATAGTAATATGTACATATATATATATATA [TGCATGCA_negctrl_site542],9.32
9,TTTTTATTCGATGATCAAATAGGTATATACAAAAAA [CACACA_negctrl_site1813],7.03
10,TTATTTAAAAAAAAGTGTACCCATATATTATAAATC [XGTACX_site8374],6.22
11,GCATCCCTTTTTATGTGTACATACAAAGGCAATTAC [XGTACX_site6977],6.92
12,TATTGTTTTAAAGAGACATGCAATATATATTATTCC [TGCATGCA_site752],6.43
13,AAAATATAAATCTAAGCATGCAAAAAAAATTTATAA [TGCATGCA_site1008],6.69
14,AATAATCATGATCAAAGTACTTATGAATACCAAAAA [XGTACX_site2572],7.05
15,AAAGACGCAAAATTGGTGCGCTGCTTTTAGCATTTT,6.65
16,AAAAAAAAAAAGTACACACATACATATAAATATATA [CACACA_site1809],6.41
17,ATTTATATCCTTAAACGTACATTGTATTGTATTTTA [XGTACX_site6080],6.43
18,ACAGAATATTTAATTCAACACACATACATATTTATT [CACACA_site8734],6.49
19,TATAAGGTGTCCTATACACACTCCAATAGATATATA [CACACA_site7066],6.27

# From the supplement of paper PMC11417369
